Experimental data taken from the supplement of paper PMC6135742.
Counter-ions that a name gives are not always drawn. ± gives the standard deviation of the averaged measurements. In all, about 2,600 compounds were measured (“MBP+ mature oligodendrocyte number relative to DMSO vehicle control”: median about -0.34, highest 2% from about 13 on). The list shows a part of the results.

test system: jimpy (Plp1 jimpy) mouse iPSC-derived oligodendrocyte progenitor cells; experiment: MBP+ mature oligodendrocyte number relative to DMSO vehicle control (SDs above negative control mean); higher = more surviving jimpy oligodendrocytes (rescue); conditions: 10 µM; 3 days
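Also: 10 µM single dose with 3-day oligodendrocyte differentiation.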

| Structure (SMILES) | MBP+ mature oligodendrocyte number |
| --- | --- |
| CC(=O)[C@H]1CC[C@H]2[C@@H]3CCC4=CC(=O)CC[C@]4(C)[C@H]3CC[C@]12C [Progesterone] | 15.4 ± 7.2 |
| Cn1cc(CNCC2CCN(c3ncc(C(=O)NO)cn3)CC2)c2ccccc21 | < -6.7 |
| OC(CN1CCC(Cc2ccc(F)cc2)CC1)c1ccc(Cl)cc1 (configuration not stated) [Eliprodil] | 13.4 |
| CN(C)CC/C=C1/c2ccccc2Sc2ccc(Cl)cc21 [Chlorprothixene] | -4.88 |
| CN(C)CC/C=C1/c2ccccc2Sc2ccc(Cl)cc21 [Chlorprothixene hydrochloride] | -3.22 |
| N[C@@H](Cc1cc(I)c(Oc2cc(I)c(O)c(I)c2)c(I)c1)C(=O)O [L-Thyroxine] | -1.06 |
| CC1(C)CCC(C)(C)c2cc(NC(=O)c3ccc(C(=O)O)cc3)ccc21 [Tamibarotene] | -5.08 |
| O=C(O)C(O)Cc1ccc(O)c(O)c1 (configuration not stated) [Sodium Danshensu] | 1.57 |
| O=C(O)C(O)Cc1ccc(O)c(O)c1 (configuration not stated) [Danshensu sodium salt] | -0.747 |
| O=C1Nc2ccccc2/C1=C1/Nc2ccccc2C1=O [Indirubin] | 1.91 |
| CN1C[C@H](O)[C@@H](O)[C@H](O)[C@H]1CO [N-Methyl-1-deoxynojirimycin] | -0.439 |
| Nc1cccc2c1C(=O)N(C1CCC(=O)NC1=O)C2=O (configuration not stated) [Pomalidomide] | -0.197 |
| Oc1ccc(OC2CCCCO2)cc1 (configuration not stated) [Deoxyarbutin] | -1.79 |
| C=C1C[C@@]23CC[C@H]4[C@@](C)(CCC[C@@]4(C)C(=O)O)[C@@H]2CC[C@]1(O)C3 [Steviol] | -0.354 |
| Nc1ccn([C@@H]2O[C@H](CO)[C@@H](O)C2(F)F)c(=O)n1 [Gemcitabine hydrochloride] | 4.4 |
| Nc1ccn([C@@H]2O[C@H](CO)[C@@H](O)C2(F)F)c(=O)n1 [Gemcitabine] | 11.8 |
| CO[C@H]1C[C@@H]2CC[C@@H](C)[C@@](O)(O2)C(=O)C(=O)N2CCCC[C@H]2C(=O)O[C@H]([C@H](C)C[C@@H]2CC[C@@H](OCCO)[C@H](OC)C2)CC(=O)[C@H](C)/C=C(\C)[C@@H](O)[C@@H](OC)C(=O)[C@H](C)C[C@H](C)/C=C/C=C/C=C/1C [Everolimus (RAD001)] | -0.938 |
| CN(C)CCN(Cc1ccccc1)c1ccccn1 [Tripelennamine HCl] | 1.77 |
| CC1CNc2c(cccc2S(=O)(=O)N[C@@H](CCCNC(=N)N)C(=O)N2CC[C@@H](C)C[C@@H]2C(=O)O)C1 (some centres not stated) [Argatroban] | 0.0731 |

| Structure (SMILES) | MBP+ mature oligodendrocyte number |
| --- | --- |
| CC1CNc2c(cccc2S(=O)(=O)N[C@@H](CCCNC(=N)N)C(=O)N2CC[C@@H](C)C[C@@H]2C(=O)O)C1 (some centres not stated) [Argatroban monohydrate] | -1.61 |
| C=CC1=C(C)c2cc3[nH]c(cc4nc(cc5[nH]c(cc1n2)c(C)c5CCC(=O)O)C(CCC(=O)O)=C4C)c(C)c3C=C [Protoporphyrin IX disodium] | -2.96 |
| O=C(/C=C/c1ccccc1)NC(NC(=S)Nc1cccc2cccnc12)C(Cl)(Cl)Cl (configuration not stated) [Salubrinal] | 19 |
| CC(=O)O[C@@]12CO[C@@H]1C[C@H](O)[C@@]1(C)C(=O)[C@H](O)C3=C(C)[C@@H](OC(=O)[C@H](O)[C@@H](NC(=O)OC(C)(C)C)c4ccccc4)C[C@@](O)([C@@H](OC(=O)c4ccccc4)[C@H]21)C3(C)C [Docetaxel] | -4.43 |
| Nc1ncnc2c1ncn2[C@@H]1O[C@H](CO)[C@@H](O)[C@H]1O [Adenosine] | -0.00311 ± 0.11 |
| Clc1ccc(CSC(Cn2ccnc2)c2ccc(Cl)cc2Cl)cc1 (configuration not stated) [Sulconazole Nitrate] | 9.19 |
| O=C(c1ccc(Nc2nccc(-c3cc4ccccc4s3)n2)cc1)N1CCC(N2CCCC2)CC1 [IKK-16 (IKK Inhibitor VII)] | < -6.01 |
| C[n+]1cc2c3c(ccc2c2ccc4cc5c(cc4c21)OCO5)OCO3 [Sanguinarine chloride] | < -3.85 |
| Cc1cc(C)c(Nc2ccnc(Nc3ccc(C#N)cc3)n2)c(C)c1 [Dapivirine (TMC120)] | < -6.01 |
| N[C@H]1C[C@@H]1c1ccc(-c2cccc(O)c2)cc1 | 3.03 |
| CCCc1c2oc(C(=O)O)cc(=O)c2cc2c(=O)cc(C(=O)O)n(CC)c12 [Nedocromil] | -0.997 |
| CC(=O)O[C@]1(C(C)=O)CC[C@H]2[C@@H]3C=C(Cl)C4=CC(=O)[C@@H]5C[C@@H]5[C@]4(C)[C@H]3CC[C@@]21C [Cyproterone acetate] | 3.38 |
| CC(=O)O[C@]1(C(C)=O)CC[C@H]2[C@@H]3C=C(Cl)C4=CC(=O)[C@@H]5C[C@@H]5[C@]4(C)[C@H]3CC[C@@]21C [Cyproterone Acetate] | 21.5 |
| CC(C)c1cc(-c2n[nH]c(=O)n2-c2ccc3c(ccn3C)c2)c(O)cc1O [Ganetespib (STA-9090)] | < -6.7 |
| COc1ccc(-c2ccc3ncc4c(c3c2)n(-c2ccc(N3CCNCC3)c(C(F)(F)F)c2)c(=O)n4C)cn1 | < -6.01 |
| C=CC(=O)Nc1cccc(Nc2nc(Nc3ccc(Oc4ccnc(C(=O)NC)c4)cc3)ncc2F)c1 | -6.27 |
| CCCSc1nc(N[C@@H]2C[C@H]2c2ccc(F)c(F)c2)c2nnn([C@@H]3C[C@H](OCCO)[C@@H](O)[C@H]3O)c2n1 [Ticagrelor] | -0.438 |
| C=C1C[C@@]2(O)O[C@@]3(C[C@H]2C(C)C)[C@@H](C)CC[C@@H]13 [Curcumol] | 5.04 |
